Reference: publication PMC9911399, “Two distinct binding modes provide the RNA-binding protein RbFox with extraordinary sequence specificity”
Residue numbers refer to the chain shown, from its start. This is one part of the list.

T1: RBFOX1 RRM RbFoxmut (Fox-RRM*) (Homo sapiens, UniProt Q9NWB1 109-208, R118D;E147R;N151S;E152T)
T1 sequence: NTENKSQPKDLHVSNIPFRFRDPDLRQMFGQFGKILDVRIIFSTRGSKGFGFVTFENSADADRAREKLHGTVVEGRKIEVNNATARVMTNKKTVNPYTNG

B1: CAAGCGC (DNA:RNA)
RNA: GGGAGACCGGAAUUCAGAUUGUCCCAAGCGCUUAAAUCCCGUCGUAGCCACCA
DNA 1: CAATCTGAATTCCGGTCTCCC
DNA 2: TGGTGGCTACGACGGGATT
B2: AUUUAGG (DNA:RNA)
RNA: B1 RNA with C25A, A26U, A27U, G28U, C29A, C31G
DNA 1: CAATCTGAATTCCGGTCTCCC
DNA 2: TGGTGGCTACGACGGGATT
B3: CGGUAUG (DNA:RNA)
RNA: B1 RNA with A26G, A27G, G28U, C29A, G30U, C31G
DNA 1: CAATCTGAATTCCGGTCTCCC
DNA 2: TGGTGGCTACGACGGGATT
B4: CCGAAGC (DNA:RNA)
RNA: B1 RNA with A26C, A27G, G28A, C29A
DNA 1: CAATCTGAATTCCGGTCTCCC
DNA 2: TGGTGGCTACGACGGGATT
B5: ACGAGCG (DNA:RNA)
RNA: GGGAGACCGGAAUUCAGAUUGUCCACGAGCGUUAAAUCCCGUCGUAGCCACCA
DNA 1: CAATCTGAATTCCGGTCTCCC
DNA 2: TGGTGGCTACGACGGGATT
B6: UAGUCAG (DNA:RNA)
RNA: B5 RNA with A25U, C26A, A28U, G29C, C30A
DNA 1: CAATCTGAATTCCGGTCTCCC
DNA 2: TGGTGGCTACGACGGGATT
B7: GAAUACA (DNA:RNA)
RNA: B1 RNA with C25G, G28U, C29A, G30C, C31A
DNA 1: CAATCTGAATTCCGGTCTCCC
DNA 2: TGGTGGCTACGACGGGATT
B8: CAAAUUG (DNA:RNA)
RNA: B1 RNA with G28A, C29U, G30U, C31G
DNA 1: CAATCTGAATTCCGGTCTCCC
DNA 2: TGGTGGCTACGACGGGATT
B9: UAAGCCG (DNA:RNA)
RNA: B1 RNA with C25U, G30C, C31G
DNA 1: CAATCTGAATTCCGGTCTCCC
DNA 2: TGGTGGCTACGACGGGATT
B10: CACUCCG (DNA:RNA)
RNA: B1 RNA with A27C, G28U, G30C, C31G
DNA 1: CAATCTGAATTCCGGTCTCCC
DNA 2: TGGTGGCTACGACGGGATT
B11: AAAAGGA (DNA:RNA)
RNA: B5 RNA with C26A, G27A, C30G, G31A
DNA 1: CAATCTGAATTCCGGTCTCCC
DNA 2: TGGTGGCTACGACGGGATT
B12: AGAUGAU (DNA:RNA)
RNA: B5 RNA with C26G, G27A, A28U, C30A, G31U
DNA 1: CAATCTGAATTCCGGTCTCCC
DNA 2: TGGTGGCTACGACGGGATT
B13: UUGUUGA (DNA:RNA)
RNA: B5 RNA with A25U, C26U, A28U, G29U, C30G, G31A
DNA 1: CAATCTGAATTCCGGTCTCCC
DNA 2: TGGTGGCTACGACGGGATT
B14: CUUCGCU (DNA:RNA)
RNA: B5 RNA with A25C, C26U, G27U, A28C, G31U
DNA 1: CAATCTGAATTCCGGTCTCCC
DNA 2: TGGTGGCTACGACGGGATT
B15: CGAGUGU (DNA:RNA)
RNA: B1 RNA with A26G, C29U, C31U
DNA 1: CAATCTGAATTCCGGTCTCCC
DNA 2: TGGTGGCTACGACGGGATT
B16: ACCCGGA (DNA:RNA)
RNA: B5 RNA with G27C, A28C, C30G, G31A
DNA 1: CAATCTGAATTCCGGTCTCCC
DNA 2: TGGTGGCTACGACGGGATT
B17: UGAUAGG (DNA:RNA)
RNA: B1 RNA with C25U, A26G, G28U, C29A, C31G
DNA 1: CAATCTGAATTCCGGTCTCCC
DNA 2: TGGTGGCTACGACGGGATT
B18: AGGUACC (DNA:RNA)
RNA: B5 RNA with C26G, A28U, G29A, G31C
DNA 1: CAATCTGAATTCCGGTCTCCC
DNA 2: TGGTGGCTACGACGGGATT
B19: AGUUUCC (DNA:RNA)
RNA: B5 RNA with C26G, G27U, A28U, G29U, G31C
DNA 1: CAATCTGAATTCCGGTCTCCC
DNA 2: TGGTGGCTACGACGGGATT
B20: CCCGCUC (DNA:RNA)
RNA: B1 RNA with A26C, A27C, G30U
DNA 1: CAATCTGAATTCCGGTCTCCC
DNA 2: TGGTGGCTACGACGGGATT
B21: GUGACGG (DNA:RNA)
RNA: B5 RNA with A25G, C26U, G29C, C30G
DNA 1: CAATCTGAATTCCGGTCTCCC
DNA 2: TGGTGGCTACGACGGGATT
B22: GACAAUC (DNA:RNA)
RNA: B1 RNA with C25G, A27C, G28A, C29A, G30U
DNA 1: CAATCTGAATTCCGGTCTCCC
DNA 2: TGGTGGCTACGACGGGATT
B23: GACGCAU (DNA:RNA)
RNA: B1 RNA with C25G, A27C, G30A, C31U
DNA 1: CAATCTGAATTCCGGTCTCCC
DNA 2: TGGTGGCTACGACGGGATT
B24: GCGUUGU (DNA:RNA)
RNA: B5 RNA with A25G, A28U, G29U, C30G, G31U
DNA 1: CAATCTGAATTCCGGTCTCCC
DNA 2: TGGTGGCTACGACGGGATT
B25: AAGUGGG (DNA:RNA)
RNA: B5 RNA with C26A, A28U, C30G
DNA 1: CAATCTGAATTCCGGTCTCCC
DNA 2: TGGTGGCTACGACGGGATT
B26: UAAACCU (DNA:RNA)
RNA: B1 RNA with C25U, G28A, G30C, C31U
DNA 1: CAATCTGAATTCCGGTCTCCC
DNA 2: TGGTGGCTACGACGGGATT
B27: CGUGGCA (DNA:RNA)
RNA: B5 RNA with A25C, C26G, G27U, A28G, G31A
DNA 1: CAATCTGAATTCCGGTCTCCC
DNA 2: TGGTGGCTACGACGGGATT
B28: UACGCGC (DNA:RNA)
RNA: B1 RNA with C25U, A27C
DNA 1: CAATCTGAATTCCGGTCTCCC
DNA 2: TGGTGGCTACGACGGGATT
B29: GUCGAUA (DNA:RNA)
RNA: B1 RNA with C25G, A26U, A27C, C29A, G30U, C31A
DNA 1: CAATCTGAATTCCGGTCTCCC
DNA 2: TGGTGGCTACGACGGGATT
B30: AUAGAUU (DNA:RNA)
RNA: B1 RNA with C25A, A26U, C29A, G30U, C31U
DNA 1: CAATCTGAATTCCGGTCTCCC
DNA 2: TGGTGGCTACGACGGGATT
B31: AGAGUAG (DNA:RNA)
RNA: B5 RNA with C26G, G27A, A28G, G29U, C30A
DNA 1: CAATCTGAATTCCGGTCTCCC
DNA 2: TGGTGGCTACGACGGGATT

Biological target: T1, RBFOX1 RRM RbFoxmut (Fox-RRM*)
Test: EMSA; HiTS-Eq, 1 nM pool, 10 min; buffer printed only for the single-RNA assays: 10 mM Tris pH 7.5, 150 mM NaCl, 3.4 mM EDTA, 0.001% NP-40, 30 C
Conditions: tags: His6 N-terminal (pET28a); label: 5' 32P
How it was run: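 Purified RbFox RRM, wild type or mutant, was incubated for 10 min in 50 µL with 1 nM of a 5′-radiolabelled RNA pool carrying 7 randomized nucleotides, whose flanks were annealed to DNA oligonucleotides, over a series of increasing protein concentrations. Unbound RNA was resolved on 8% native PAGE, cut out, reverse-transcribed, barcoded by PCR and sequenced on an Illumina HiSeq 2500. Relative association constants were derived from changes in read counts for each RNA species versus the control reaction and normalised to the cognate motif.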

Row | Binder | binding signal
1 | B1 | 0.0844 KA relative to UGCAUGU
2 | B2 | 0.0851 KA relative to UGCAUGU
3 | B3 | 0.885 KA relative to UGCAUGU
4 | B4 | 0.0985 KA relative to UGCAUGU
5 | B5 | 0.16 KA relative to UGCAUGU
6 | B6 | 0.0969 KA relative to UGCAUGU
7 | B7 | 0.117 KA relative to UGCAUGU
8 | B8 | 0.117 KA relative to UGCAUGU
9 | B9 | 0.12 KA relative to UGCAUGU
10 | B10 | 0.0747 KA relative to UGCAUGU
11 | B11 | 0.0508 KA relative to UGCAUGU
12 | B12 | 0.0767 KA relative to UGCAUGU
13 | B13 | 0.0998 KA relative to UGCAUGU
14 | B14 | 0.108 KA relative to UGCAUGU
15 | B15 | 0.203 KA relative to UGCAUGU
16 | B16 | 0.0844 KA relative to UGCAUGU

Row | Binder | binding signal
17 | B17 | 0.0672 KA relative to UGCAUGU
18 | B18 | 0.0954 KA relative to UGCAUGU
19 | B19 | 0.0802 KA relative to UGCAUGU
20 | B20 | 0.0841 KA relative to UGCAUGU
21 | B21 | 0.0828 KA relative to UGCAUGU
22 | B22 | 0.0331 KA relative to UGCAUGU
23 | B23 | 0.122 KA relative to UGCAUGU
24 | B24 | 0.149 KA relative to UGCAUGU
25 | B25 | 0.0945 KA relative to UGCAUGU
26 | B26 | 0.051 KA relative to UGCAUGU
27 | B27 | 0.156 KA relative to UGCAUGU
28 | B28 | 0.108 KA relative to UGCAUGU
29 | B29 | 0.127 KA relative to UGCAUGU
30 | B30 | 0.106 KA relative to UGCAUGU
31 | B31 | 0.175 KA relative to UGCAUGU
